Measured values as given in PubChem BioAssay AID1460 (National Center for Advancing Translational Sciences (NCATS), 2008).
Values joined by “and” are separate entries in the source; they are usually repeats but may differ in a detail not shown here. Equal entries are not always repeated. The campaign covered roughly 270,000 compounds. About 5,800 (2.1%) were called active. Inconclusive means that the source gave no clear call. Such entries were picked first, then a sample of the others. Calls come from the whole dose curve; as a rule, active = well fitted inhibition curve with a large enough effect; inconclusive = small, poorly fitted or top-dose-only effect; inactive = flat fitted curve, though single readings scatter. Potencies beside an inconclusive call are fits to weak or partial responses and may not hold up.

What follows are compounds tested against Microtubule-associated protein tau (Homo sapiens) (UniProt P10636) (assay: qHTS for Inhibitors of Tau Fibril Formation, Thioflavin T Binding). Conditions: recombinant tau K18 P301L (four-repeat tau fragment), heparin-induced fibrillization, ThT fluorescence; series mostly up to 57.4 µM; activity, negative = inhibition: at the top concentration.
Procedure, shortened: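 In this qHTS, human K18 P301L tau is incubated with compound and heparin for 6 hr at 37 C, and Thioflavin T fluorescence then reports fibril load.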
% is set by controls: 0 for no effect and ±100 for the full control effect; potency is the fitted concentration of half-maximal effect; tags give direction and shape of the fitted curve.
Note: nearly all actives have a fitted effect of over 55% in size.

Chain of UniProt P10636 (P10636 whole entry, looked up, the tested form may be a part): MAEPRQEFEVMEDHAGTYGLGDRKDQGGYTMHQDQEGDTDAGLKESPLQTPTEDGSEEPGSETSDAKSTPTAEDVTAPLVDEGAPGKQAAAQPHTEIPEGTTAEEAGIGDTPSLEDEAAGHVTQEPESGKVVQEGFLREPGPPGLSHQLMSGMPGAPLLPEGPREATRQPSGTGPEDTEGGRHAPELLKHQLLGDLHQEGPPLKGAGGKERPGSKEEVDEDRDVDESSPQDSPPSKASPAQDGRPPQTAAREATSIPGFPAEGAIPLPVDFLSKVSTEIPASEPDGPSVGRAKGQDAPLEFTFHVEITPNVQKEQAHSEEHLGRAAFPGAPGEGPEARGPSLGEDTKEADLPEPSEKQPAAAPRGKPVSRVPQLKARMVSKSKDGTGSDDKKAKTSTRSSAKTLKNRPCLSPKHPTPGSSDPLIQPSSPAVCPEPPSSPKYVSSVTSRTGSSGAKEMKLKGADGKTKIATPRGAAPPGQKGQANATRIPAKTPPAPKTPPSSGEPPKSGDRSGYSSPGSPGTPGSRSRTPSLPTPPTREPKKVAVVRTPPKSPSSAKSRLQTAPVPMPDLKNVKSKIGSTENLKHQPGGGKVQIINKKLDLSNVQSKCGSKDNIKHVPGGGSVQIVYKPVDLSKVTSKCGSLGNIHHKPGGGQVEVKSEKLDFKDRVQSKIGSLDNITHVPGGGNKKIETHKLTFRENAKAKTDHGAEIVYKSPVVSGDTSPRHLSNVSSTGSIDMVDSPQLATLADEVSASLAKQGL

| Structure (SMILES) | Potency | activity, negative = inhibition |
| --- | --- | --- |
| c1ccc2c(C3=NNC(=NC4CCCCC4)SC3)c[nH]c2c1 | inconclusive: 28.2 µM [inhibitor, single point] | – |
| O=c1[nH]c2c(s1)C=Nc1ccccc1N2 | – | inactive: -15.5% |
| COc1ccc(NC(=O)C(=O)NCC2(c3ccccc3)CCCC2)c(OC)c1 | inconclusive: 22.4 µM [inhibitor, single point] | – |
| COCCN1C(=O)N[C@@H](c2ccco2)C(C(=O)OC)=C1C | inconclusive: 2.51 µM [inhibitor, partial curve] | – |
| Cc1ccc2oc3c(c(=O)c2c1)C(c1ccc(OCC(N)=O)cc1)N(Cc1ccc2c(c1)OCO2)C3=O (stereo unspecified) | inconclusive: 44.7 µM [inhibitor, single point] | – |
| CNC(=O)CSc1nnc(NC(=O)Nc2ccccc2)s1 | – | inactive: -6.77% |
| CCOc1ccccc1N(CC(=O)Nc1ccc(OC)c(Cl)c1)S(=O)(=O)c1ccccc1 | – | inactive: -14.6% |
| CCOC(=O)C1CCN(C(=O)COc2cc(C)c(Br)c(C)c2)CC1 | inconclusive: 28.2 µM [inhibitor, partial curve, poor fit] | – |
| O=C(Oc1ccc(/C=N/n2cnnc2)cc1)c1cccc([N+](=O)[O-])c1 | inconclusive: 14.1 µM [inhibitor, partial curve] | – |
| C=CCOc1cccc(C2C(C(=O)c3ccc(C)o3)=C(O)C(=O)N2c2nccs2)c1 (stereo unspecified) | inconclusive: 12.6 µM [inhibitor, partial curve] | – |
| CCCC/C=C/C(NC(=O)c1ccc(C(=O)OC)cc1)c1ccccc1 (stereo unspecified) | – | inactive: 1.7% |
| O=C(NC1CCCCCCC1)c1ccc2c(c1)OCO2 | – | inactive: -5.16% |
| C=CCn1c(C)csc1=Nc1ccc(C(C)=O)cc1 | inconclusive: 25.1 µM [inhibitor, single point] | – |
| O=C(Nc1ccccc1)N1CCN(c2ccc(C(F)(F)F)cn2)CC1 | inconclusive: 2.51 µM [inhibitor, full curve, poor fit] | – |
| COc1ccc(C(=O)/C=C/Nc2cc(C)ccn2)cc1 | inconclusive: 1.26 µM [inhibitor, partial curve, poor fit] | – |
| C(=N\Nc1nc2ccccc2[nH]1)/c1ccc2c(c1)OCO2 | active: 7.94 µM | – |
| C#CCOCCOCCOCCNc1nc(N2CCN(C(=O)[C@H]([C@@H](C)CC)n3cc([C@@H](N)Cc4ccc(O)cc4)nn3)CC2)nc(N2CCN(C(=O)[C@H]([C@@H](C)CC)n3cc([C@@H](N)CC(C)C)nn3)CC2)n1 | inconclusive: 39.8 µM [inhibitor, single point] | – |
| Cn1cc(Cl)c(C(=O)NNC(=S)Nc2cccc(Cl)c2)n1 | inconclusive: 17.8 µM [inhibitor, partial curve] | – |
| O=[N+]([O-])c1cc(C(F)(F)F)ccc1NCCc1c[nH]c2ccc(O)cc12 | active: 17.8 µM | – |
| O=[N+]([O-])c1cc(S(=O)(=O)Nc2ccccc2)ccc1NCc1cccnc1 | inconclusive: 31.6 µM [inhibitor, single point] | – |
| Cc1cccc(N2C(=O)CC(Sc3ccccc3C(=O)O)C2=O)c1 (stereo unspecified) | inconclusive: 28.2 µM [inhibitor, single point] | – |
| CCn1c(CSc2nc3ccccc3[nH]2)nc2cc(C(=O)O)ccc21 | – | inactive: -4.16% |

| Structure (SMILES) | Potency | activity, negative = inhibition |
| --- | --- | --- |
| COc1cc(NC(=S)NC(=O)c2ccco2)ccc1NC(=O)C(C)C | – | inactive: -14.6% |
| COc1cc(N/N=C/c2ccc(N(C)C)cc2)ncn1 | inconclusive: 7.94 µM [inhibitor, partial curve] | – |
| Cc1ccc(C(=O)CC(=O)c2cccc(F)c2)c(O)c1 | inconclusive: 12.6 µM [inhibitor, partial curve] | – |
| O=C(CCCN1C(=O)/C(=C\c2cccs2)SC1=S)Nc1ccccn1 | inconclusive: 0.199 µM [inhibitor, full curve] | – |
| O=C(N/N=C/c1ccco1)c1cccc(S(=O)(=O)Nc2ccccc2Cl)c1 | – | inactive: -9.7% |
| COc1ccc(C(=O)/C=C/Nc2ccc(S(=O)(=O)Nc3nc(C)cc(C)n3)cc2)c(OC)c1 | inconclusive: 22.4 µM [inhibitor, partial curve] | – |
| CCCc1cc(=O)oc2cc(C)c(CN3CCCC3)c(O)c12 | inconclusive: 35.5 µM [inhibitor, single point] | – |
| O=C(N/C(=C\c1ccco1)C(=O)N1CCOCC1)c1ccco1 | inconclusive: 17.8 µM [inhibitor, partial curve] | – |
| COc1cc2ccccc2cc1C(=O)Nc1cccnc1 | inconclusive: 3.16 µM [inhibitor, partial curve, poor fit] | – |
| Cc1ccc(O)c(C2=Nc3ccccc3N=C(c3cccc(F)c3)C2)c1 | inconclusive: 5.01 µM [inhibitor, full curve] | – |
| O=c1c(-c2ccc(O)cc2)coc2cc(O)ccc12 | inconclusive: 7.08 µM [inhibitor, full curve] and inconclusive: 39.8 µM [inhibitor, single point] | – |
| COc1ccc(N2C3=C(CC4=C2CCCC4=O)C(=O)CCC3)cc1 | inconclusive: 25.1 µM [inhibitor, single point] | – |
| Oc1ccc(CN2CCC(Cc3ccccc3)CC2)c2cccnc12 | inconclusive: 15.8 µM [inhibitor, partial curve] | – |
| C=CCn1c(N)c(C(=O)Nc2ccc(C)c(C)c2)c2nc3ccccc3nc21 | – | inactive: -4.42% |
| COc1ccc(-c2cn3nc(N4CCC(C(=O)Nc5ccc(C)cc5)CC4)sc3n2)cc1 | inconclusive: 1.78 µM [inhibitor, partial curve] | – |
| Cc1cccc(Oc2coc3cc(OCC(=O)NC4CCCCC4)ccc3c2=O)c1 | inconclusive: 0.447 µM [inhibitor, partial curve, poor fit] | – |
| Cc1ccc(C)c(-c2nc3ccc(N)cc3[nH]2)c1 | inconclusive: 12.6 µM [inhibitor, partial curve, poor fit] | – |
| CCOc1ccc(N(CC)S(=O)(=O)N2CCCC(C(=O)NCCc3ccccc3OC)C2)cc1 (stereo unspecified) | – | inactive: -12.5% |
| COc1ccc2[nH]c(=O)c(-c3noc(-c4ccccc4)n3)cc2c1 | inconclusive: 5.62 µM [inhibitor, full curve] | – |
| CO/N=C(/C)CCC(=O)OC[C@@H]1O[C@H](c2ccccc2)C=C[C@@H]1Oc1ccc(OC)cc1 | – | inactive: -4.83% [at 11.5 µM] |
| CCOc1ccc(/C=C/c2nc(C#N)c(N3CCN(c4ccccc4)CC3)o2)cc1 | inconclusive: 14.1 µM [inhibitor, partial curve, poor fit] | – |
| COc1cccc2c1OC(=O)CC2c1ccc(C)cc1 (stereo unspecified) | – | inactive: -7.94% [at 81.4 µM] |

| Structure (SMILES) | Potency | activity, negative = inhibition |
| --- | --- | --- |
| COc1ccccc1N1CCN(c2cc(C)nc3nc(-c4ccc(Cl)cc4)nn23)CC1 | – | inactive: -2.75% |
| COc1nc(-c2ccc(C)cc2)ccc1-c1noc(-c2ccc(C(C)(C)C)cc2)n1 | – | inactive: -13.3% |
| CCOc1cccc2cc(-c3csc(NC(=O)CCC(=O)NCCN4CCCCC4C)n3)c(=O)oc12 (stereo unspecified) | inconclusive: 10 µM [inhibitor, partial curve] | – |
| Cc1ccc(C(=O)N2CCN(C3c4cccc5cccc(c45)C3NS(=O)(=O)c3ccccc3)CC2)cc1 (stereo unspecified) | – | inactive: -21.2% |
| CN(C)c1ccc(/C=N/NC(=O)c2ccc(Cl)cc2)cc1 | inconclusive: 1.26 µM [inhibitor, full curve] | – |
| CC1CCN(S(=O)(=O)c2nnc(NC(=O)c3cccc(F)c3)s2)CC1 | inconclusive: 0.891 µM [inhibitor, full curve] | – |
| Cc1sc2nc(CSCC(=O)Nc3ccc(N4CCOCC4)cc3)[nH]c(=O)c2c1C | inconclusive: 10 µM [inhibitor, partial curve] | – |
| O=C(NC(=S)NNC(=O)[C@H]1C[C@@H]1c1ccccc1)c1ccc(F)cc1 | inconclusive: 3.55 µM [inhibitor, full curve, poor fit] | – |
| Cc1ccc(-c2nnc(Nc3cccc(C(F)(F)F)c3)c3ccccc23)cc1S(=O)(=O)N1CCOCC1 | – | inactive: -14.9% |
| O=S(=O)(c1ccc(NC(=S)N/N=C/c2ccc(N3CCOCC3)cc2)cc1)N1CCOCC1 | inconclusive: 5.62 µM [inhibitor, full curve] | – |
| Cc1cc(/C=N/Nc2ccc([N+](=O)[O-])cn2)c(C)n1-c1ccc(C(=O)O)cc1 | active: 4.47 µM | – |
| Cc1oc(=O)c(NC(=O)c2ccc(Cl)cc2)cc1C(=O)c1ccccc1 | active: 17.8 µM | – |
| O=C(c1ccc(CS(=O)(=O)c2c(Cl)cccc2Cl)o1)N1CCN(c2ccccc2)CC1 | – | inactive: -7.31% |
| Cc1ccc(Nc2nc(N3CCOCC3)c3ccccc3n2)cc1 | – | inactive: -19.3% |
| Cc1ccc(-n2c(SCC(N)=O)nc3c([nH]c4ccccc43)c2=O)cc1 | inactive | – |
| CC(=O)OC1CC[C@]2(C)C(CC(OC(C)=O)[C@@]3(C)C4=CC(=O)OC(c5ccoc5)[C@]4(C)CCC23)C1(C)C (stereo partly specified) | inactive and inconclusive: 20 µM [inhibitor, partial curve, poor fit] | – |
| CCc1ccc(NC(=S)Nc2ccc3[nH]c(=O)[nH]c3c2)cc1 | inconclusive: 20 µM [inhibitor, partial curve] | – |
| CC(C)c1ccc2oc(=O)cc(CN3CCN(c4ccc(F)cc4)CC3)c2c1 | inconclusive: 22.4 µM [inhibitor, single point] | – |
| CCc1c(O)nc(SCc2nc3ccccc3c(=O)[nH]2)[nH]c1=O | inconclusive: 17.8 µM [inhibitor, partial curve] | – |
| CCCC1(C(=O)OCC)NC(c2ccc(N(C)C)cc2)C2C(=O)N(c3ccccc3)C(=O)C21 (stereo unspecified) | – | inactive: -5.48% |
| CCCCCc1ccc(C(=O)CCCC)c(=S)[nH]1 | inconclusive: 14.1 µM [inhibitor, partial curve, poor fit] | – |
| Cn1c(=O)c2c3c(sc2n2c(SCC(N)=O)nnc12)CC(C(C)(C)C)CC3 (stereo unspecified) | inconclusive: 20 µM [inhibitor, partial curve, poor fit] | – |
